Consider 28 compounds from the antibiotic and cytotoxicity screens of Wong et al. (2023).

Molecules are shown by their SMILES. Some of the results follow.

In assay [1] the test system is HSkMC (human skeletal muscle cells). In words: cytotoxicity call (relative viability < 0.9). The conditions noted are these: 10 µM.
For assay [2], the system named is HepG2. In words: cytotoxicity call (relative viability < 0.9). Particulars: 10 µM.
The subject of assay [3] is S. aureus RN4220. In words: growth inhibition call (relative growth <= 0.2). Particulars: 50 µM.

As to `COc1oc(C(=O)NC2CCCCC2)c(-c2ccc(Cl)cc2)c1S(=O)(=O)c1ccc(Br)cc1`, the cytotoxicity call in assay [1] and in assay [2] was “inactive” throughout. Moreover, the growth inhibition call in assay [3] was “inactive”.

Take `CN1CCN(C(=O)C[C@@H]2C[C@H]3c4cc(NC(=O)c5ccc6c(c5)OCO6)ccc4O[C@H]3[C@@H](CO)O2)CC1`: the cytotoxicity call in assay [1] and in assay [2] was “inactive” in each case. The growth inhibition call in assay [3] was “inactive”.

Consider `CCCOc1ccc(=O)n(C)n1`, for which the cytotoxicity call in assay [1] and in assay [2] was “inactive” throughout. In addition, in assay [3], the growth inhibition call was “inactive”.

Regarding `Cc1noc(C)c1NC(=O)Nc1cccc2c1O[C@@H](CN(C)S(=O)(=O)c1cn(C)cn1)[C@@H](C)CN([C@H](C)CO)C2=O`, the cytotoxicity call in assay [1] and in assay [2] was “inactive” in each case. In addition, the growth inhibition call in assay [3] was “inactive”.

`Cc1ccc(S(=O)(=O)N(C)C[C@H]2Oc3ccc(NS(=O)(=O)c4cn(C)cn4)cc3C(=O)N([C@H](C)CO)C[C@H]2C)cc1`: the cytotoxicity call in assay [1] and in assay [2] was “inactive” throughout. Moreover, the growth inhibition call in assay [3] is “inactive”.

Regarding `Cc1noc(C)c1NC(=O)N(C)C[C@H]1OCCCC[C@H](C)Oc2ccc(NS(=O)(=O)c3ccc(Cl)cc3)cc2C(=O)N([C@@H](C)CO)C[C@@H]1C`, the cytotoxicity call in assay [1] and in assay [2] was “inactive” throughout. The growth inhibition call in assay [3] is “inactive”.

As to `C[C@@H]1CN([C@@H](C)CO)C(=O)c2cc(NC(=O)C3CCCCC3)ccc2O[C@H]1CN(C)Cc1ccc(Oc2ccccc2)cc1`, the cytotoxicity call in assay [1] and in assay [2] was “inactive” in each case. Moreover, the growth inhibition call in assay [3] was “inactive”.

With `CS(=O)(=O)Nc1ccc2c(c1)[C@@H]1C[C@H](CC(=O)NCc3ccc(-c4ccccc4)cc3)O[C@H](CO)[C@@H]1O2`, the cytotoxicity call in assay [1] and in assay [2] was “inactive” throughout. In addition, in assay [3], the growth inhibition call was “inactive”.

Regarding `Cc1[nH]c(=O)[nH]c(=O)c1S(=O)(=O)N1CCOCC1`, the cytotoxicity call in assay [1] and in assay [2] was “inactive” each time. Moreover, in assay [3], the growth inhibition call is “inactive”.

On to `NCC[C@H]1CC[C@@H](NC(=O)C2CCCCC2)[C@H](CO)O1`, for which the cytotoxicity call in assay [1] and in assay [2] was “inactive” each time. For the same compound, the growth inhibition call in assay [3] is “inactive”.

Take `Cc1ccc(S(=O)(=O)Nc2ccc3c(c2)C(=O)N([C@H](C)CO)C[C@H](C)[C@H](CN(C)C(=O)Nc2ccc(F)cc2)OCCCC[C@@H](C)O3)cc1`: the cytotoxicity call in assay [1] and in assay [2] was “inactive” throughout. Moreover, the growth inhibition call in assay [3] was “inactive”.

On to `C[C@@H]1CN([C@H](C)CO)C(=O)Cc2cc(NS(=O)(=O)c3cccs3)ccc2O[C@@H]1CN(C)S(=O)(=O)c1ccccc1`, for which the cytotoxicity call in assay [1] and in assay [2] was “inactive” in each case. Moreover, the growth inhibition call in assay [3] is “inactive”.

Take `COc1cc(Cc2cc3c(c(CCc4ccccc4)n2)[Si](C(C)C)(C(C)C)O[C@H]3c2ccccc2)cc(OC)c1OC`: the cytotoxicity call in assay [1] and in assay [2] was “inactive” each time. For the same compound, in assay [3], the growth inhibition call is “active”.

For `CC=Cc1ccc2n(c1=O)C[C@@H]1[C@@H](CO)[C@H](C(=O)NCCC)[C@H]2N1S(=O)(=O)c1cn(C)cn1`, the cytotoxicity call in assay [1] and in assay [2] was “inactive” each time. Besides, the growth inhibition call in assay [3] is “inactive”.

On to `C[C@@H]1CCCCO[C@@H](CN(C)CC2CCCCC2)[C@H](C)CN([C@@H](C)CO)C(=O)c2cc(NC(=O)c3ccncc3)ccc2O1`, for which the cytotoxicity call in assay [1] and in assay [2] was “inactive” throughout. For the same compound, the growth inhibition call in assay [3] was “inactive”.

As for `Cc1nnc(Nc2cccc([C@H]3CCCN(C(=O)CN)C3)n2)s1`, the cytotoxicity call in assay [1] and in assay [2] was “inactive” throughout. In assay [3], the growth inhibition call was “inactive”.

For `NCCOc1cccc(Cl)c1`, the cytotoxicity call in assay [1] and in assay [2] was “inactive” each time. Moreover, the growth inhibition call in assay [3] is “inactive”.

Take `C[C@H](O)C#Cc1ccc2c(c1)O[C@@H](CN(C)C(=O)c1ccccc1)[C@H](C)CN([C@H](C)CO)S2(=O)=O`: the cytotoxicity call in assay [1] and in assay [2] was “inactive” throughout. The growth inhibition call in assay [3] is “inactive”.

For the compound `CO[C@@H]1[C@H](O)[C@@H](CO)O[C@H]1n1cc(C)c(N)nc1=O`, the cytotoxicity call in assay [1] and in assay [2] was “inactive” each time. Also, in assay [3], the growth inhibition call was “inactive”.

As to `C[C@@H]1CCCCO[C@@H](CN(C)C(=O)NC2CCCCC2)[C@@H](C)CN([C@@H](C)CO)C(=O)c2cc(NC(=O)Nc3cccc4ccccc34)ccc2O1`, the cytotoxicity call in assay [1] and in assay [2] was “inactive” each time. For the same compound, in assay [3], the growth inhibition call was “inactive”.

Regarding `COc1ccc(NC(=O)N(C)C[C@@H]2Oc3c(NC(=O)Nc4cccc5ccccc45)cccc3C(=O)N([C@@H](C)CO)C[C@H]2C)cc1`, the cytotoxicity call in assay [1] and in assay [2] was “inactive” throughout. Besides, the growth inhibition call in assay [3] was “inactive”.

For the compound `C[C@H](CO)N1C[C@H](C)[C@H](CN(C)Cc2ccc3c(c2)OCO3)Oc2c(NC(=O)C3CCOCC3)cccc2C1=O`, the cytotoxicity call in assay [1] and in assay [2] was “inactive” throughout. The growth inhibition call in assay [3] was “inactive”.

`CCCNC(=O)N1C[C@H](O)COC[C@H]2O[C@@H](CC(=O)N3CCOCC3)CC[C@@H]21`: the cytotoxicity call in assay [1] and in assay [2] was “inactive” in each case. For the same compound, the growth inhibition call in assay [3] is “inactive”.

On to `Cc1noc(C)c1NC(=O)N(C)C[C@H]1Oc2ccc(NS(C)(=O)=O)cc2CC(=O)N([C@H](C)CO)C[C@@H]1C`, for which the cytotoxicity call in assay [1] and in assay [2] was “inactive” throughout. Further, in assay [3], the growth inhibition call was “inactive”.

For `O=C(/C=C/c1ccc(O)c(O)c1)O[C@@H]1[C@H](O)C[C@@](O)(C(=O)O)C[C@H]1OC(=O)/C=C/c1ccc(O)c(O)c1`, the cytotoxicity call in assay [1] and in assay [2] was “inactive” throughout. Besides, in assay [3], the growth inhibition call is “inactive”.

On to `OC[C@@H](O)[C@@H](O)[C@@H](O)CO`, for which the cytotoxicity call in assay [1] and in assay [2] was “inactive” each time. Besides, the growth inhibition call in assay [3] is “inactive”.

Take `COc1cccc(S(=O)(=O)N(C)C[C@@H]2Oc3ncc(-c4ccccc4)cc3C(=O)N([C@H](C)CO)C[C@@H]2C)c1`: the cytotoxicity call in assay [1] and in assay [2] was “inactive” in each case. Further, the growth inhibition call in assay [3] was “inactive”.

For `C[C@@H]1CN([C@@H](C)CO)C(=O)Cc2cc(NS(=O)(=O)c3cn(C)cn3)ccc2O[C@@H]1CN(C)Cc1ccncc1`, the cytotoxicity call in assay [1] and in assay [2] was “inactive” throughout. Moreover, the growth inhibition call in assay [3] was “inactive”.
